Several values for one entry are separate records, joined by “and”; a condition that tells them apart may be missing. Identical values can stand only once. Out of some 230,000 compounds screened, about 3,600 (1.6%) were called active. This list was built around the results that the source calls inconclusive (neither active nor inactive); the mix of calls is not that of the screen. Calls come from the whole dose curve; as a rule, active = well fitted inhibition curve with a large enough effect (not every such curve was filed as active); inconclusive = small, poorly fitted or top-dose-only effect, or another doubt; inactive = no such curve, though single readings can be large or run the other way. Potencies of inconclusive entries are doubtful fits and often do not repeat.
The compounds below were run against Lysine-specific demethylase 4E (Homo sapiens) (UniProt B2RXH2) (assay: qHTS Assay for Inhibitors of Human Jumonji Domain Containing 2E (JMJD2E)). Conditions: JMJD2E catalytic domain, FDH-coupled NADH fluorescence (FDH is formaldehyde dehydrogenase); series mostly up to 57.1 µM; activity change, negative = inhibition: at the top concentration.
Note: nearly all actives have a fitted effect of over 50% in size.
Potency is the fitted concentration of half-maximal effect; tags give direction and shape of the fitted curve.
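Throughout, for activity change, negative = inhibition: 0% = wells with enzyme and -100% = buffer wells without enzyme.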

Sequence of UniProt B2RXH2 (B2RXH2 whole entry, looked up, the tested form may be a part): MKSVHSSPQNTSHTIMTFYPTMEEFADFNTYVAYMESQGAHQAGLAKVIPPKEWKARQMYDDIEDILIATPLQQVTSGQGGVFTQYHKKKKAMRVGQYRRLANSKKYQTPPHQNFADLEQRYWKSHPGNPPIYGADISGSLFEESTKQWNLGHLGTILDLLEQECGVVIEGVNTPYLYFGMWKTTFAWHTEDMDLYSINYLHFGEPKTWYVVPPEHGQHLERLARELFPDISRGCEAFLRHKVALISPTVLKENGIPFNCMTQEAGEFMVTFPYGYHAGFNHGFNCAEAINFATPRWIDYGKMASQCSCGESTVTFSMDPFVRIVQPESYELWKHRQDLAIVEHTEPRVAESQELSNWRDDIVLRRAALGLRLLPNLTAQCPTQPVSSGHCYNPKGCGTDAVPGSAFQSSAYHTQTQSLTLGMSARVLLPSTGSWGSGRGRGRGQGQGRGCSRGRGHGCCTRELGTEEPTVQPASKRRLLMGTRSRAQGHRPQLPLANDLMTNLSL

Structure (SMILES) | Potency | activity change, negative = inhibition
CN(C)c1ccc(C=C2C(=O)NC(=S)NC2=O)cc1[N+](=O)[O-] | inconclusive: 39.8 µM [inhibitor, single point] | 
CN1C(=O)C(=Cc2ccccc2Oc2ccc(Cl)cc2)C(=O)N(C)C1=O |  | inactive: -4.61%
C/C(=N\NC(N)=O)c1c(O)n(C)c(=O)n(C)c1=O |  | inactive: 9.35%
Cn1c(O)c(C2=NNC(c3ccc(Cl)cc3)C2)c(=O)n(C)c1=O (configuration not stated) | inconclusive: 39.8 µM [inhibitor, single point] | 
CCCNC(=O)c1c(N)n(Cc2ccc3c(c2)OCO3)c2nc3ccccc3nc12 | inconclusive: 5.01 µM [inhibitor, partial curve] | 
O=C1CC2(CCCC2)CC(=O)N1CCCCN1CCN(c2ncccn2)CC1 | inconclusive: 39.8 µM [inhibitor, single point] | 
COCC(C)OC(=O)c1c(N)n(Cc2ccco2)c2nc3ccccc3nc12 (configuration not stated) | inconclusive: 22.4 µM [inhibitor, partial curve] | 
CN(C)C1C(=O)C(C(N)=O)=C(O)[C@@]2(O)C(=O)C3=C(O)c4c(O)cccc4[C@@](C)(O)C3CC12 (some centres not stated) | active: 2.51 µM | 
CN1C(=O)/C(=C\c2ccc(N3CCCCCC3)cc2)C(=O)NC1=S |  | inactive: -21.3%
Cc1cc(C)c(Cn2c(C(=O)O)c(C=O)c3ccccc32)c(C)c1 |  | inactive: -6.33%
O=C(c1ccc2c(c1)OCO2)N1CCC2(CC1)OCCO2 |  | inactive: 1.76%
Cn1cc(C(=O)C(=O)N[C@H]2CN3CCC2CC3)c2ccccc21 |  | inactive: -1.81%
O=C(c1cc2ccccn2n1)N1CCN(Cc2ccccc2)CC1 | inconclusive: 31.6 µM [inhibitor, partial curve] | 
CNC(=O)c1cccn(Cc2cc(C(F)(F)F)cc(C(F)(F)F)c2)c1=O | inconclusive: 28.2 µM [inhibitor, partial curve] | 
O=c1c2cc(N3CCOCC3)ccc2[nH]c(=S)n1Cc1ccc(Cl)cc1 | inconclusive: 35.5 µM [inhibitor, partial curve] | 
C/C=C1\C[C@H](C)[C@@](O)(CO)C(=O)OCC2=CCN3CC[C@@H](OC1=O)[C@@H]23 | inconclusive: 8.91 µM [inhibitor, partial curve] | 
CC[C@@]1(O)C(=O)OCc2c1cc1n(c2=O)Cc2cc3c(N)cccc3nc2-1 | inconclusive: 25.1 µM [inhibitor, single point] | 
COc1cc2c3cc1Oc1c(OC)c(OC)cc4c1C(Cc1cccc(c1)Oc1ccc(c(O)c1)CC3N(C)CC2)N(C)CC4 (configuration not stated) | inconclusive: 28.2 µM [inhibitor, partial curve] | 
N[C@@H](CCCP(=O)(O)O)C(=O)O | inconclusive: 39.8 µM [inhibitor, single point] | 
CC(=O)Nc1ccccc1C(=O)OCc1cccc(F)c1 | inconclusive: 35.5 µM [inhibitor, single point] | 
COc1ccc2c3c([nH]c2c1)C(C)NCC3 (configuration not stated) | inconclusive: 25.1 µM [inhibitor, single point] | 

Structure (SMILES) | Potency | activity change, negative = inhibition
O=C(CN1CC=C(c2ccccc2)CC1)NC(=O)NC1CCCCC1 | inconclusive: 5.01 µM [inhibitor, full curve] | 
O=C1NC(=O)N(c2ccc(Cl)cc2)C(=O)/C1=C/c1coc2ccc(O)cc2c1=O | inconclusive: 39.8 µM [inhibitor, single point] | 
C=CC1CN2CCC1CC2C(OC(C)=O)c1ccnc2ccc(OC)cc12 (configuration not stated) | inconclusive: 35.5 µM [inhibitor, single point] | 
Cc1cccc(CN2CCN(c3ccc(Cl)cc3)CC2)c1 | active: 22.4 µM | 
C/C(=N\NC(=O)c1ccncc1)c1c(O)n(-c2ccccc2)c(=O)[nH]c1=O | inconclusive: 35.5 µM [inhibitor, single point] | 
C/C(=N\Nc1cccc2ccccc12)c1c(O)n(Cc2ccccc2)c(=O)[nH]c1=O | inconclusive: 28.2 µM [inhibitor, partial curve] | 
COc1cc(/C=N/NC(=O)CN2CCCCC2)ccc1OCc1ccccc1 | inconclusive: 35.5 µM [inhibitor, single point] | 
CN(C)c1ccc(NC(=O)Oc2ccccc2)cc1 | inconclusive: 10 µM [inhibitor, partial curve] | 
N#Cc1cc2c(nc1SCC(=O)Nc1ccc(Cl)cc1)C1CCN2CC1 | inconclusive: 39.8 µM [inhibitor, single point] | 
COC(=O)c1ccc(COc2cc(C)cc3oc(=O)c4c(c23)CCCC4)o1 | inconclusive: 28.2 µM [inhibitor, partial curve] | 
O=[N+]([O-])c1cc([As](=O)(O)O)ccc1O | inconclusive: 39.8 µM [inhibitor, single point] | 
CC1CCCCN1Cc1c[nH]c2ccccc12 (configuration not stated) | inconclusive: 39.8 µM [inhibitor, single point] | 
Cc1c(Cc2ccccc2)c(=O)oc2cc(OCc3ccc(C(=O)O)cc3)ccc12 | inconclusive: 31.6 µM [inhibitor, partial curve] | 
O=C(O)c1ccc2[nH]cc(CCCCN3CC=C(c4ccccc4)CC3)c2c1 | inconclusive: 39.8 µM [inhibitor, single point] | 
CNc1ccc2oc(C[C@H]3O[C@@]4(CC[C@H]3C)O[C@H]([C@H](C)C(=O)c3ccc[nH]3)[C@H](C)C[C@H]4C)nc2c1C(=O)O | inconclusive: 12.6 µM [inhibitor, partial curve] and inconclusive: 11.2 µM [inhibitor, partial curve] | 
CCN1CC2(COC(=O)c3ccccc3N)CCC(OC)C34C5CC6C(OC)CC(O)(C5C6OC)C(O)(C(OC)C23)C14 (configuration not stated) | inconclusive: 28.2 µM [inhibitor, partial curve] | 
COc1ccc2c(c[n+](C)c3c4cc5c(cc4ccc23)OCO5)c1OC |  | inactive: -20.9%
Cc1cc(C=C2C(=O)N(C)C(=S)N(C)C2=O)c(C)n1-c1cccnc1 |  | inactive: -3.16%
C=CCn1c(O)c(C(C)=NCCCN(C)C)c(=O)[nH]c1=O |  | inactive: 5.88%
C=CCN1C(=O)/C(=C/c2cc(C)n(-c3ccccn3)c2C)C(=O)NC1=S |  | inactive: -1.09%
N#Cc1c(/N=C/C2C(=O)NC(=S)NC2=O)sc2c1CCCC2 | inconclusive: 39.8 µM [inhibitor, single point] | 

Reference: PubChem BioAssay AID2147 (National Center for Advancing Translational Sciences (NCATS), 2009)
